Experimental data from PubChem BioAssay (NCI).
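At the GI50, growth is halved. Definition used: TGI = concentration required for complete inhibition of growth.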 Calls of active or inactive are those of the source.

Key:
Test in all cases: growth of human tumour cells (NCI), 384-well format
[1] = test system: HL-60(TB) leukemia
[2] = test system: SNB-75 CNS
[3] = test system: UACC-62 melanoma
[4] = test system: SF-268 CNS
[5] = test system: M14 melanoma
[6] = test system: SK-MEL-5 melanoma
[7] = test system: OVCAR-3 ovarian

For `CNC(=O)c1ccccc1Sc1ccc2c(/C=C/c3ccccn3)n[nH]c2c1`, the GI50 [1] was “inactive”, the TGI [1] was 10.6 µM and the GI50 [2] was “inactive”. For the same molecule, the TGI [2] was 51.7 µM, the GI50 [3] was “inactive” and the TGI [3] was 23.4 µM. The GI50 [4] was “inactive”, the TGI [4] was 77.6 µM and the GI50 [5] was “inactive”. For the same molecule, the TGI [5] was 38.9 µM, the GI50 [6] was “inactive” and the TGI [6] was 28.3 µM. For the same molecule, the GI50 [7] was “inactive” and the TGI [7] was over 100 µM.
